# Some of the results follow. The full chains were built here from the parent and the listed change. Inactive controls read about 0.05.
# B1: TEV protease; numbered along this chain (parent)
# chain: MGESLFKGPRDYNPISSSICHLTNESDGHTTSLYGIGFGPFIITNKHLFRRNNGTLVVQSLHGVFKVKDTTTLQQHLVDGRDMIIIRMPKDFPPFPQKLKFREPQREERICLVTTNFQTKSMSSMVSDTSCTFPSGDGIFWKHWIQTKDGQCGSPLVSTRDGFIVGIHSASNFTNTNNYFTSVPKNFMELLTNQEAQQWVSGWRLNADSVLWGGHKVFMVKPEEPFQPVKEATQL
# Variants of: B1
# Assay: raw area under fraction-flipped curve 0-4 h after induction (AUC4h, not background-subtracted), DNA-recorder readout of cleavage of the substrate (dimensionless); higher = more cleavage of the substrate by the protease variant
# Conditions: temperature: 34 °C; time window: 0-4 h after rhamnose induction
# Description: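 In vivo DNA recorder in E. coli TOP10(DE3) ΔrhaA at 34 °C. Each TEVp single-site mutant (parent TEVp 0) is paired with a single-site variant of the 7-mer TEVs (canonical ENLYFQ|S). The substrate sits between flexible linkers in a Bxb1-sfGFP-TEVs-SsrA fusion, so cleavage stabilises Bxb1 and speeds flipping of a recombination array, read by NGS. The value is the raw area under the fraction-flipped curve over 0-4 h after rhamnose induction (AUC4h), with ≥20 reads per time point. It is not background-subtracted; inactive controls average about 0.047.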
# 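Also: Bxb1 expression induced with 0.2% (w/v) L-rhamnose at OD600 near 0.5, cultures sampled hourly, flipped fraction per protease–substrate barcode pair counted by paired-end Illumina sequencing.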
Variant,area with substrate ECLYFQS,area with substrate EDLYFQS,area with substrate EELYFQS,area with substrate EFLYFQS,area with substrate EHLYFQS,area with substrate EILYFQS,area with substrate EKLYFQS,area with substrate EQLYFQS,area with substrate ERLYFQS,area with substrate ESLYFQS,area with substrate ETLYFQS,area with substrate EVLYFQS,area with substrate EWLYFQS,area with substrate EYLYFQS,area with substrate EMLYFQS,area with substrate ELLYFQS,area with substrate EGLYFQS,area with substrate EPLYFQS
D69N,0.094,0.104,0.0992,0.124,0.045,0.0684,0.125,0.089,0.1,0.105,0.0617,0.088,0.0868,0.122,,,,
F38N,0.0959,0.0931,0.098,,,0.0832,,0.0834,0.0721,,,,,,0.0676,,,
T147W,0.0523,0.0935,0.0586,,0.0549,0.051,0.0629,0.0603,0.066,0.0554,0.0575,0.0487,0.0806,0.0655,0.0662,0.0523,,
V220D,0.167,,0.144,0.109,,0.113,0.152,0.187,0.133,0.137,0.113,0.111,0.0969,,,0.112,0.111,0.15
K46I,0.0831,0.0879,0.0726,,0.0688,0.0643,0.0509,0.0634,0.0626,0.0582,0.0738,0.0589,0.0854,0.0621,0.0624,0.0682,0.0608,
S154L,0.121,0.186,0.199,,0.173,,,0.152,,0.17,,0.122,0.119,,0.159,,,0.118
S154R,0.0707,0.0964,0.0938,0.0809,0.0845,0.0732,0.0865,0.0954,,0.0881,,0.0748,,0.0844,,0.0804,0.0705,0.0952
H143D,0.0606,,,,0.0584,0.0502,0.0641,0.0671,0.0477,0.0563,,0.0613,0.0604,0.0839,0.0479,0.0587,,
S135G,0.0922,,0.104,,0.101,0.07,0.0707,0.0851,0.0826,0.0809,,0.0696,,0.0806,0.0633,0.0769,,0.0877
T181P,0.0412,,,0.0597,0.0669,0.0503,,,,0.0554,,0.0535,0.0394,,0.0552,,,
P40Y,0.0948,,0.163,0.0892,0.104,0.124,0.108,0.109,0.0919,0.0945,0.133,0.145,0.0842,,0.139,,0.0933,0.0819
F6M,0.106,,0.105,,0.119,0.101,,,,0.11,,0.0959,,,,0.0974,0.0949,0.132
L77E,0.0458,,0.0832,0.0545,0.059,0.037,0.0592,,0.0687,0.0605,0.0684,0.0673,0.0529,,,0.0637,0.0763,0.0596
K142D,0.0738,0.098,0.0604,,0.0647,0.0681,0.0683,0.0836,0.102,0.0742,,0.0656,,0.0693,0.0625,0.0766,,
M125S,0.0958,,,0.104,0.13,0.126,0.0862,,0.0965,0.103,,0.0808,,0.115,0.0047,,,
M125R,0.135,0.127,0.129,0.14,0.109,0.0801,,0.134,0.141,0.108,0.118,,,0.145,,,0.125,0.13
L33W,0.064,0.0771,0.0364,0.0656,0.0687,0.05,0.061,0.0597,0.0572,0.0592,0.0539,0.0661,0.0592,,0.0612,0.0555,0.0444,0.0612
L156G,0.053,0.0542,0.0559,,0.0795,,0.0577,0.0434,0.0599,0.059,,,,0.0603,0.0424,,,0.0527
T71P,0.106,,0.107,,,0.0803,0.0853,,,0.0714,,,,,,0.0687,0.0487,
S209F,0.0985,,0.138,,,0.201,0.0741,0.144,0.122,0.137,,0.108,,,,,0.0944,0.141
I19M,0.132,0.123,0.116,,,0.0914,0.111,0.115,0.0738,0.114,0.08,0.0988,0.0613,0.108,0.12,0.091,0.0926,0.121
I43G,0.0485,0.0485,,0.055,,0.0505,0.0587,0.0593,0.0636,0.064,,0.0449,0.0455,,0.0545,0.0461,0.0591,0.0279
I43F,0.0848,0.0993,,0.0677,0.0815,0.071,0.0784,0.0717,0.0757,0.0768,0.086,0.0838,0.0654,0.0671,0.0805,0.0743,0.084,0.101
I36Q,0.0566,,0.0653,,0.0663,0.0658,0.0724,0.0643,0.07,0.0777,,0.0588,0.0657,,0.0751,0.0633,0.072,
P225D,0.122,,0.0978,,,,0.112,0.115,,,,,0.0918,,,0.108,,0.159
N52D,0.0448,,0.0787,0.0656,,0.0682,,0.069,0.0675,0.089,0.0768,0.0681,0.0591,0.113,0.125,0.0321,0.0967,
Q59F,0.101,0.132,,,0.0646,0.091,0.11,0.0887,0.0942,0.0895,0.126,,0.0773,0.0979,0.0794,0.0773,0.0893,0.0852
M83G,0.0456,0.0671,,,0.0469,0.0495,0.0578,0.0509,0.0378,0.0597,0.0546,0.054,,0.0555,,0.0524,0.0543,

# Reference: the supplement of paper PMC12217912
